# In the supplement of paper PMC8728848:
# This is one part of the list.
# B1: Epa1-NP-mutant-Y228W (Candida glabrata), Q6VBJ0 (protein)
# chain: MILNPALFLNKCVCIYTTLILLLLTNGGYATSSNDISLASKDPTTFPLGCSPDITTPKKGLSMELYSYDFRKKGSYPCWDAAYLDPNYPRTGYKSHRLLAKVDGVTGNINFYYHATKGCTPQLGHLPASYNYPKPLTMTNFTMLLYGYFRPKVTGFHTFTISADDLLFVNFGAGNAFDCCRRDSSADHFGNYQAYAIWGSKTAKDELTVHLDAGVYYPIRLFYNNREWDGALSFTFKTESNENTVSDFSEYFFSLDDTEEGCPGLISYDSSCASVKTSKIIGIDYHTETPNENLVPITKTIYHLGIPCTGTTTTPLCGSGFYDPLANKCVTINTSSTSSVTKTTSHTTSKEVSFHSSISSQKTLIPKSIPSPYGPIKSQSIPTEMETSSEISSSEYAFSDVISTPSHSPYTKKHSSLNSSSYTSTVIHSLTSYSISQGIFSTSLSEQNITSKSSTDKFSTATSMSNNITQSSIIISQFSTNNENYTTTSMHTSSDKISTETLNNSISTTTSILFSNSSTILKNNTTIISSDKDTHYHPVNPTIVCSTNKTEIICASITQPSISNSNNHWSSSVLKFNSTTVRSTLPSSAGSNETSINVPFSSSTESNTSTSSTSTSNSKMVRSTLPSSAGSNETSISVPFSSSTESNTSTSSTSTSNSKMVRSTLPSSAGSNETSINVPFSSSTESNTSTSSTSTSNSKTVRSTPFSSAGIIMTSLSQRNNKSASSYASSNSKCYNTADSCRKVHSTPSYLLTSSYTSEGVDYDCSLVSTKLKINDTNCVNNKHTTKSCLKTSVTTTIPTLEIKTARKSSSNTIGLHSYPTSSPNKSISSAPIIGYISSFKTIKTASPSYQTSDLTTITTITSLNNPGSTAVENTHESNDKSRKTSSNDISSKHSVIKETKDAVESSNKSHQTNTLKCSSIIIASSSHNSYESLGGTTLTLTLSKVYSPQNNDTLPFLEISEVNPSRTVLPESSKMMQYLTSTEERNKTARNTIATNIVSISTFHFEGEGNAIRMGYTQLLLMLIGIIVMNIGT
# Key:
# Assay in all cases: glycan array binding signal (z-score within array); higher = stronger binding
# Conditions in all cases: glycan notation: IUPAC condensed, linker removed; mutation: Y228W
# [1] = target: Fuc(a1-2)Gal6S(b1-3)GlcNAc
# How it was run: (§1)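 The binding signal is a Z-score computed within each array and averaged over linkers. Arrays of the same protein sequence at different concentrations or buffers were also averaged together. Data originate from 3228 arrays in the Consortium for Functional Glycomics database, kept only where the protein sequence was available.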
# [2] = target: Fuc(a1-2)Gal6S(b1-3)GlcNAc6S
# How it was run: as §1
# Fuc(a1-2)Gal6S(b1-4)Glc = target: Fuc(a1-2)Gal6S(b1-4)Glc
# How it was run: as §1
# [3] = target: Fuc(a1-2)Gal6S(b1-4)Glc6S
# How it was run: as §1
# Fuc(a1-2)[Gal(a1-3)]Gal = target: Fuc(a1-2)[Gal(a1-3)]Gal
# How it was run: as §1
# [4] = target: Fuc(a1-2)[Gal(a1-3)]Gal(b1-3)GalNAc
# How it was run: as §1
# [5] = target: Fuc(a1-2)[Gal(a1-3)]Gal(b1-3)GalNAc(b1-3)Gal(a1-4)Gal(b1-4)Glc
# How it was run: as §1
# [6] = target: Fuc(a1-2)[Gal(a1-3)]Gal(b1-3)GlcNAc
# How it was run: as §1
# [7] = target: Fuc(a1-2)[Gal(a1-3)]Gal(b1-3)GlcNAc(b1-2)Man(a1-3)[Fuc(a1-2)[Gal(a1-3)]Gal(b1-3)GlcNAc(b1-2)Man(a1-6)]Man(b1-4)GlcNAc(b1-4)GlcNAc
# How it was run: as §1
# [8] = target: Fuc(a1-2)[Gal(a1-3)]Gal(b1-3)GlcNAc(b1-2)Man(a1-3)[Fuc(a1-2)[Gal(a1-3)]Gal(b1-3)GlcNAc(b1-2)Man(a1-6)]Man(b1-4)GlcNAc(b1-4)[Fuc(a1-6)]GlcNAc
# How it was run: as §1
# [9] = target: Fuc(a1-2)[Gal(a1-3)]Gal(b1-3)GlcNAc(b1-3)GalNAc
# How it was run: as §1
# [10] = target: Fuc(a1-2)[Gal(a1-3)]Gal(b1-3)GlcNAc(b1-6)GalNAc
# How it was run: as §1
# [11] = target: Fuc(a1-2)[Gal(a1-3)]Gal(b1-4)Glc
# How it was run: as §1
# [12] = target: Fuc(a1-2)[Gal(a1-3)]Gal(b1-4)GlcNAc
# How it was run: as §1
# [13] = target: Fuc(a1-2)[Gal(a1-3)]Gal(b1-4)GlcNAc(b1-2)Man
# How it was run: as §1
# [14] = target: Fuc(a1-2)[Gal(a1-3)]Gal(b1-4)GlcNAc(b1-2)Man(a1-3)[Fuc(a1-2)[Gal(a1-3)]Gal(b1-4)GlcNAc(b1-2)Man(a1-6)]Man(b1-4)GlcNAc(b1-4)GlcNAc
# How it was run: as §1
# [15] = target: Fuc(a1-2)[Gal(a1-3)]Gal(b1-4)GlcNAc(b1-2)Man(a1-3)[Fuc(a1-2)[Gal(a1-3)]Gal(b1-4)GlcNAc(b1-2)Man(a1-6)]Man(b1-4)GlcNAc(b1-4)[Fuc(a1-6)]GlcNAc
# How it was run: as §1
# [16] = target: Fuc(a1-2)[Gal(a1-3)]Gal(b1-4)GlcNAc(b1-3)GalNAc
# How it was run: as §1
# [17] = target: Fuc(a1-2)[Gal(a1-3)]Gal(b1-4)GlcNAc(b1-3)[Fuc(a1-2)[Gal(a1-3)]Gal(b1-4)GlcNAc(b1-6)]GalNAc
# How it was run: as §1
# [18] = target: Fuc(a1-2)[Gal(a1-3)]Gal(b1-4)GlcNAc(b1-6)GalNAc
# How it was run: as §1
# [19] = target: Fuc(a1-2)[Gal(a1-3)]Gal(b1-4)[Fuc(a1-3)]Glc
# How it was run: as §1
# [20] = target: Fuc(a1-2)[Gal(a1-3)]Gal(b1-4)[Fuc(a1-3)]GlcNAc
# How it was run: as §1
# [21] = target: Fuc(a1-2)[Gal(a1-3)]Gal(b1-4)[Fuc(a1-3)]GlcNAc(b1-3)GalNAc
# How it was run: as §1
# [22] = target: Fuc(a1-2)[Gal(a1-4)]Gal(b1-4)GlcNAc
# How it was run: as §1
# [23] = target: Fuc(a1-2)[GalNAc(a1-3)]Gal
# How it was run: as §1
# [24] = target: Fuc(a1-2)[GalNAc(a1-3)]Gal(b1-3)GalNAc(a1-3)[Fuc(a1-2)]Gal(b1-4)GlcNAc
# How it was run: as §1
# [25] = target: Fuc(a1-2)[GalNAc(a1-3)]Gal(b1-3)GalNAc(b1-3)Gal(a1-4)Gal(b1-4)Glc
# How it was run: as §1
# [26] = target: Fuc(a1-2)[GalNAc(a1-3)]Gal(b1-3)GlcNAc
# How it was run: as §1
# [27] = target: Fuc(a1-2)[GalNAc(a1-3)]Gal(b1-3)GlcNAc(b1-2)Man(a1-3)[Fuc(a1-2)[GalNAc(a1-3)]Gal(b1-3)GlcNAc(b1-2)Man(a1-6)]Man(b1-4)GlcNAc(b1-4)GlcNAc
# How it was run: as §1
# [28] = target: Fuc(a1-2)[GalNAc(a1-3)]Gal(b1-3)GlcNAc(b1-2)Man(a1-3)[Fuc(a1-2)[GalNAc(a1-3)]Gal(b1-3)GlcNAc(b1-2)Man(a1-6)]Man(b1-4)GlcNAc(b1-4)[Fuc(a1-6)]GlcNAc
# How it was run: as §1
# [29] = target: Fuc(a1-2)[GalNAc(a1-3)]Gal(b1-3)GlcNAc(b1-3)GalNAc
# How it was run: as §1
# [30] = target: Fuc(a1-2)[GalNAc(a1-3)]Gal(b1-3)GlcNAc(b1-6)GalNAc
# How it was run: as §1
# [31] = target: Fuc(a1-2)[GalNAc(a1-3)]Gal(b1-4)Glc
# How it was run: as §1
# [32] = target: Fuc(a1-2)[GalNAc(a1-3)]Gal(b1-4)GlcNAc
# How it was run: as §1
# [33] = target: Fuc(a1-2)[GalNAc(a1-3)]Gal(b1-4)GlcNAc(b1-2)Man
# How it was run: as §1
# [34] = target: Fuc(a1-2)[GalNAc(a1-3)]Gal(b1-4)GlcNAc(b1-2)Man(a1-3)[Fuc(a1-2)[GalNAc(a1-3)]Gal(b1-4)GlcNAc(b1-2)Man(a1-6)]Man(b1-4)GlcNAc(b1-4)GlcNAc
# How it was run: as §1
# [35] = target: Fuc(a1-2)[GalNAc(a1-3)]Gal(b1-4)GlcNAc(b1-2)Man(a1-3)[Fuc(a1-2)[GalNAc(a1-3)]Gal(b1-4)GlcNAc(b1-2)Man(a1-6)]Man(b1-4)GlcNAc(b1-4)[Fuc(a1-6)]GlcNAc
# How it was run: as §1
# [36] = target: Fuc(a1-2)[GalNAc(a1-3)]Gal(b1-4)GlcNAc(b1-3)Gal(b1-4)GlcNAc
# How it was run: as §1
# [37] = target: Fuc(a1-2)[GalNAc(a1-3)]Gal(b1-4)GlcNAc(b1-3)Gal(b1-4)GlcNAc(b1-3)Gal(b1-4)GlcNAc
# How it was run: as §1
# [38] = target: Fuc(a1-2)[GalNAc(a1-3)]Gal(b1-4)GlcNAc(b1-3)GalNAc
# How it was run: as §1
# [39] = target: Fuc(a1-2)[GalNAc(a1-3)]Gal(b1-4)GlcNAc(b1-3)[Fuc(a1-2)[GalNAc(a1-3)]Gal(b1-4)GlcNAc(b1-6)]GalNAc
# How it was run: as §1
# [40] = target: Fuc(a1-2)[GalNAc(a1-3)]Gal(b1-4)GlcNAc(b1-6)GalNAc
# How it was run: as §1
# [41] = target: Fuc(a1-2)[GalNAc(a1-3)]Gal(b1-4)[Fuc(a1-3)]GlcNAc
# How it was run: as §1
# [42] = target: Fuc(a1-2)[GalNAc(a1-3)]Gal(b1-4)[Fuc(a1-3)]GlcNAc(b1-3)GalNAc
# How it was run: as §1
# [43] = target: Fuc(a1-2)[GalNAc(a1-4)]Gal(b1-4)GlcNAc
# How it was run: as §1
binder,measurement,setting,value
B1,glycan array binding signal (z-score),[1],-0.297
same,glycan array binding signal (z-score),[2],-0.1
same,glycan array binding signal (z-score),Fuc(a1-2)Gal6S(b1-4)Glc,-0.117
same,glycan array binding signal (z-score),[3],-0.424
same,glycan array binding signal (z-score),Fuc(a1-2)[Gal(a1-3)]Gal,-0.19
same,glycan array binding signal (z-score),[4],0.002
same,glycan array binding signal (z-score),[5],-0.266
same,glycan array binding signal (z-score),[6],-0.249
same,glycan array binding signal (z-score),[7],-0.211
same,glycan array binding signal (z-score),[8],-0.269
same,glycan array binding signal (z-score),[9],-0.019
same,glycan array binding signal (z-score),[10],-0.368
same,glycan array binding signal (z-score),[11],-0.105
same,glycan array binding signal (z-score),[12],-0.39
same,glycan array binding signal (z-score),[13],-0.304
same,glycan array binding signal (z-score),[14],-0.217
same,glycan array binding signal (z-score),[15],-0.252
same,glycan array binding signal (z-score),[16],-0.223
same,glycan array binding signal (z-score),[17],-0.044
same,glycan array binding signal (z-score),[18],-0.111
same,glycan array binding signal (z-score),[19],-0.252
same,glycan array binding signal (z-score),[20],-0.288
same,glycan array binding signal (z-score),[21],-0.436
same,glycan array binding signal (z-score),[22],-0.165
same,glycan array binding signal (z-score),[23],-0.351
same,glycan array binding signal (z-score),[24],-0.099
same,glycan array binding signal (z-score),[25],-0.281
same,glycan array binding signal (z-score),[26],-0.247
same,glycan array binding signal (z-score),[27],-0.213
same,glycan array binding signal (z-score),[28],-0.159
same,glycan array binding signal (z-score),[29],-0.104
same,glycan array binding signal (z-score),[30],-0.421
same,glycan array binding signal (z-score),[31],-0.093
same,glycan array binding signal (z-score),[32],-0.193
same,glycan array binding signal (z-score),[33],-0.144
same,glycan array binding signal (z-score),[34],-0.084
same,glycan array binding signal (z-score),[35],-0.254
same,glycan array binding signal (z-score),[36],-0.161
same,glycan array binding signal (z-score),[37],-0.038
same,glycan array binding signal (z-score),[38],-0.323
same,glycan array binding signal (z-score),[39],-0.236
same,glycan array binding signal (z-score),[40],-0.369
same,glycan array binding signal (z-score),[41],-0.138
same,glycan array binding signal (z-score),[42],-0.1
same,glycan array binding signal (z-score),[43],-0.214
